Here are results for 47 molecules from PubChem BioAssay AID1508624 (National Center for Advancing Translational Sciences (NCATS), 2021).

Hit rate of the full screen: of about 48,000 compounds, about 120 (0.25%) were called active. Inconclusive results (about 4%) are left out. The call rests on the fitted dose curve; in most records, active means well fitted activation curve with a large enough effect; inconclusive means small, poorly fitted or top-dose-only effect, or another doubt; inactive means no such curve, though single readings can be large or run the other way. This is one part of the list.

The assay is described as follows: Primary qHTS for Identification of Small Molecule Activators of Huntingtin-Antisense Promoter Activity. Further: nearly all actives have a fitted effect of over 55% in size. To be noted: HEK293 HTT-AS promoter firefly luciferase reporter (activity 0% = vehicle and -100% = no light), 24 h; series mostly up to 57.5 µM; activity change, positive = activation: at the top concentration. In short, it runs like this:
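Firefly luciferase readout (Dual-Glo, 10 min RT) after 24 h, 37 °C compound exposure (final up to 57.5 uM) of HEK293 reporter cells cultured 24 h beforehand; PTC124 at 50 uM final as control inhibitor; activity scaled vehicle 0%, zero RLU -100%.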
In general terms: qHTS replaces the single test concentration by a dilution series.
For `CCOc1ccc(-c2cc(C(=O)Oc3ccc(C#N)cc3)no2)cc1`, the “activity change, positive = activation” value is inactive: 3.79%. Regarding `COc1ccc(/C=C/c2nc(C#N)c(NCc3ccc(F)cc3)o2)cc1OC`, the “activity change, positive = activation” value is inactive: -33.1%. The result for `COc1ccc(N2CCN(CCCNC(=O)c3cc(Nc4ccc(OC)cc4OC)nc4ccccc34)CC2)cc1` reads inactive: -39%. For `O=C(CCS(=O)(=O)c1ccccc1)N(Cc1cccnc1)c1nc2ccc(Cl)cc2s1`, the “activity change, positive = activation” value was inactive: 2.21%. Regarding `CCCN1Cc2cccc(C(=O)Nc3ccc(C(C)=O)cc3)c2C1=O`, the “activity change, positive = activation” value was inactive: -16.4%. Under `CC1=C(c2ccc(Cl)cc2)S(=O)(=O)NC1=NCCCN1CCN(c2cc(C)ccc2C)CC1` stands inactive: -51.8%; under `CCC(CC)C(=O)OCc1cc(=O)n2nc(C3CC3)sc2n1`, inactive: 2.22%; under `Cn1cc(-c2cc3n(n2)CCC(=O)N3CCCC(=O)NCc2ccc(Cl)cc2)c2ccccc21`, inactive: -49.7%.

For the molecule `O=C(CCCn1c(=O)c2cccn2c2ccccc21)Nc1cc(C(F)(F)F)ccc1Cl`, the “activity change, positive = activation” value was inactive: -17.1%. As for `CC1C(=O)Nc2ccc(S(=O)(=O)N3CCCCC3)cc2NC1=O` (configuration not stated), the “activity change, positive = activation” value was inactive: -22.4%.

For `COc1ccc(Cn2c(CCC(=O)Nc3cc(OC)c(OC)c(OC)c3)nc3cccnc32)cc1`, the “activity change, positive = activation” value is inactive: -22.7%. Turning to `CCOC(=O)c1cc(-c2ccc(OC)cc2)n(CCC(=O)Nc2ccccc2OC)c1C`, the “activity change, positive = activation” value is inactive: -26.3%. The result for `O=C(CSc1nccn1Cc1ccccc1)NCc1ccco1` reads inactive: 16.6%; that for `CCOc1ccccc1NC(=O)CN1C(=O)COc2ccc(S(=O)(=O)N3CCOCC3)cc21`, inactive: -3.49%. On to `CCOc1ccc(NCc2cccn2-c2nnc(N3CCC(C(=O)NCC(C)c4ccccc4)CC3)s2)cc1` (configuration not stated), for which the “activity change, positive = activation” value was inactive: -37.6%. Take `CCN(c1ccccc1)S(=O)(=O)c1ccc(NC(=O)c2nc(SC)ncc2Cl)cc1`: the “activity change, positive = activation” value is inactive: -39.4%. In the case of `CCN(CC)c1ccc(NC(=O)C2CCN(c3nnc(-n4cccc4)s3)CC2)c(C)c1`, the “activity change, positive = activation” value was inactive: -19.4%. With `O=c1c2sc3ccccc3c2n(Cc2cccc(F)c2)c(=O)n1Cc1ccccc1`, the “activity change, positive = activation” value is inactive: -19.4%. The result for `CCOC(=O)Cn1c(=O)n(CC2CCCO2)c2nc(-c3ccccc3OC)nc(C(N)=O)c21` (configuration not stated) reads inactive: -2.1%; that for `O=C(NC1CC(=O)N(c2ccc(F)cc2)C1)c1ccc(S(=O)(=O)N2CCCCC2)cc1` (configuration not stated), inactive: -23.9%. The result for `O=C(NCc1cccs1)c1ccc2c(=O)n3nc(Nc4ccccc4)sc3nc2c1` reads inactive: -17%. With `Cc1ccc2c(c1Br)C(O)(CC(=O)c1ccc(F)cc1)C(=O)N2` (configuration not stated), the “activity change, positive = activation” value is inactive: -19.8%.

Turning to `CCOC(=O)c1ccc(N2C(=O)c3[nH]nc(-c4ccccc4)c3C2c2ccc(CC)cc2)cc1` (configuration not stated), the “activity change, positive = activation” value was inactive: -53.7%. Take `Cc1cccc2sc(N(Cc3cccnc3)C(=O)CCc3ccccc3)nc12`: the “activity change, positive = activation” value is inactive: -21.3%. On to `Cc1c(Cl)cccc1NC(=O)CC1Oc2ccccc2NC1=O` (configuration not stated), for which the “activity change, positive = activation” value was inactive: -4.6%. `CCOc1ccccc1C(=O)N(Cc1ccco1)Cc1ccco1`: the “activity change, positive = activation” value is inactive: -14%. Turning to `COc1ccccc1CNC(=O)C1CCCN(S(=O)(=O)c2ccc3c(c2)oc(=O)n3C)C1` (configuration not stated), the “activity change, positive = activation” value was inactive: -18.4%. The result for `O=C(Cn1c(=O)n(Cc2nc(-c3ccccc3)no2)c(=O)c2ccccc21)Nc1cccc(C(F)(F)F)c1` reads inactive: -62.9%. For `O=C(c1ccc2c(c1)N(Cc1ccccc1F)C(=O)c1ccccc1S2(=O)=O)N1CCC(Cc2ccccc2)CC1`, the “activity change, positive = activation” value was inactive: -12.8%. For the molecule `COc1ccc(-c2cc(C(=O)Nc3c(C(=O)c4ccc(C)cc4)oc4ccccc34)no2)cc1`, the “activity change, positive = activation” value is inactive: 3.34%. Consider `CCn1nc(C)c2c(-c3ccccc3)cc(=O)n(C(C)C(=O)NCCC(C)C)c21` (configuration not stated), for which the “activity change, positive = activation” value is inactive: -25.6%. The result for `CC(=O)Nc1ccc(NC(=O)CCc2nc3cccnc3n2Cc2cccs2)cc1` reads inactive: -16.3%. As for `CCc1ccc(OC(C)C(=O)N2CCC(c3nc4ccccc4o3)CC2)cc1` (configuration not stated), the “activity change, positive = activation” value is inactive: -37.6%.

`Cc1ccc(C(=O)Nc2ccc3c(c2)n(C)c(=O)c(=O)n3C)cc1`: the “activity change, positive = activation” value was inactive: -0.964%.

Take `COc1ccc(CNS(=O)(=O)c2ccc(N3CCCCS3(=O)=O)cc2)cc1`: the “activity change, positive = activation” value is inactive: -33.7%.

Consider `Cc1ccc(NC(=O)Cn2nc(C(=O)Nc3ccc(C)cc3)ccc2=O)cc1`, for which the “activity change, positive = activation” value was inactive: -6.1%.

As for `CC1CCN(Cc2c(O)ccc3c(=O)c(Oc4ccccc4Cl)c(C(F)(F)F)oc23)CC1`, the “activity change, positive = activation” value was inactive: -8.21%.

For the molecule `O=C(COc1ccccc1F)Nc1ccc2nc(SCCOc3ccccc3)sc2c1`, the “activity change, positive = activation” value is inactive: -19.7%. With `COc1ccc(NC(=O)CC2C(=O)N(c3cccc(OC)c3)C(=O)N2CCc2cccs2)cc1` (configuration not stated), the “activity change, positive = activation” value is inactive: -7.62%.

Consider `Cc1ccc(NC(=O)Cn2c(=O)n(Cc3nc(-c4ccccc4)no3)c(=O)c3cc4c(cc32)OCO4)cc1F`, for which the “activity change, positive = activation” value was inactive: -19.9%. Take `O=C(Nc1cc(-c2nc3ccccc3o2)ccc1Cl)c1sc2c([N+](=O)[O-])cccc2c1Cl`: the “activity change, positive = activation” value was inactive: 7.29%. As to `CC(C)(C)OC(=O)N1CCC(c2c(C(=O)NCc3cccc(Cl)c3)cnn2-c2ccc(F)cc2)CC1`, the “activity change, positive = activation” value was inactive: -6.87%. Consider `COc1cc(/C=C(\C#N)C(=O)NCC2CCCO2)ccc1O` (configuration not stated), for which the “activity change, positive = activation” value is inactive: 10.4%. Regarding `CCc1ccccc1NC(=O)CSc1nc(-c2cccc(Cl)c2)nc2c1Cc1c(CO)cnc(C)c1O2`, the “activity change, positive = activation” value is inactive: -12.7%. On to `Cc1ccccc1C(=O)Nc1nnc(S(=O)(=O)N(C)Cc2ccccc2)s1`, for which the “activity change, positive = activation” value was inactive: -25.7%. For `COc1ccc(-n2c(-c3ccc(C)cc3)cc3c2CC(C)(C)CC3=O)cc1Cl`, the “activity change, positive = activation” value is inactive: -5.19%.

In the case of `CC1CCN(C(=O)Cn2c(=O)n(CC3CCC(C(=O)NC(C)C)CC3)c(=O)c3sccc32)CC1` (configuration not stated), the “activity change, positive = activation” value is inactive: -9.98%.
